For the test, the system named is NCI-H322M lung. The test is described as follows: NCI tumour cell line growth inhibition, 48 h.

Each structure is given as a SMILES string.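 A five-concentration, 48-hour dose response in 96-well plates underlies each endpoint, interpolated linearly between surrounding concentrations. GI50 is the concentration that inhibits growth by half. The concentration for full growth arrest is given as TGI.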

On to `O=C(NO)c1ccc(CNC(=O)[C@H]2Cc3c([nH]c4ccccc34)[C@H](c3ccc(Cl)cc3)N2)cc1`, for which the GI50 was 1.62 µM and the TGI amounted to 19.1 µM.

The values are drawn from PubChem BioAssay (NCI).
